From the supplement of paper PMC3334620
In all, about 33,000 sequences were measured (“E-score (-0.5 to 0.5)”: median about -0.054, highest 2% from about 0.39 on). This is one part of the list.

Molecular target: Ylr278c (UniProt Q05854)
Experiment: PBM E-score (8-mer binding enrichment) (E-score (-0.5 to 0.5)); higher = stronger / more preferred TF binding; most listed sequences are background and not binding sites
Details: protein concentration: 200 nM; construct: GST-DNA-binding domain
Method: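 Universal 'all 10-mer' protein binding microarrays (Agilent AMADID 015681) probed with GST-tagged S. cerevisiae TFs (full-length or DBD) made by in vitro transcription/translation (PURExpress), about 100-200 nM. Bound TF was detected with fluorescent anti-GST. Each ungapped 8-mer (which stands for itself and its reverse complement) is scored by the PBM enrichment score (E-score), a modified Wilcoxon-Mann-Whitney statistic from -0.5 to +0.5, computed with the Universal PBM Analysis Suite. Scale: above 0.35 generally sequence-specific binding.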

Sequence | PBM E-score
TAGGCAAA | -0.158
AAAGGCGG | 0.176
ACATTTAA | 0.0447
ATGTACGC | -0.288
GCCCGCAC | 0.282
ACGATATG | -0.0566
GCACGGTA | -0.0539
CTGACTCC | 0.143
CTCTTAAC | -0.21
ACGAGAAC | -0.0656
TATCAAGA | -0.135
AACGCTTG | -0.0781
ACCTGATC | -0.177
TGTATAAA | -0.0868
AAACCCTC | -0.0128
ACAGAACC | -0.16
TACTATAA | -0.12
CAGCAACC | -0.0809
AACGATGA | 0.0509
GTTTACGA | -0.238
ACCCATAT | -0.17
ACTCGGAG | 0.428
CCGCTCCG | 0.444
CAGGCGCG | -0.0797
CGAGAGCG | 0.126

Sequence | PBM E-score
AATGCGCG | 0.313
GTGGTAGA | -0.156
CTCGCGCA | 0.0619
ACACGCCT | -0.257
ATCTGCTA | -0.318
ACGTTGAC | -0.18
CAAGGCGG | 0.135
AGAAGCTA | 0.0166
ATACCCAA | -0.0949
AATGGCAC | -0.0289
GTCCCCAA | -0.0362
GCAGGTAA | 0.116
CCGTCGAC | 0.0989
GCTGATAC | 0.0102
CCCCAGGA | -0.196
AATGACCG | 0.218
ACCGGTGG | 0.192
CCACAGAC | -0.243
GGACTCAC | 0.00149
CGACCCCC | -0.0599
GAGGTCAC | -0.0534
ACGAAAGC | -0.149
ATGAACCG | -0.127
ACCTTAAG | -0.111
CCCCGAAA | 0.368

Sequence | PBM E-score
AATCGTCG | 0.0365
TAATCACA | -0.259
ATGCCCAA | -0.226
ACGCGATC | 0.0734
CGAGGACA | 0.0478
AGTCTGAT | -0.265
GAGACACC | -0.068
GGCTTCAC | 0.0279
GCCGATGA | 0.298
CATATAGA | -0.161
ATCTGGTG | -0.0676
CTAAACGA | 0.0243
CTTCTCGA | -0.194
AAGTGTGT | -0.353
GGAAAGGA | 0.185
GACCTAAC | 0.0677
AACGCCGG | 0.424
CGTCTATA | 0.0143
ACAGTAGT | -0.234
GCGTAGAA | 0.0122
CACGACCC | -0.0645
ACTGTGTG | -0.101
AACCTAGT | -0.00542
ATTTTTAC | -0.121
ATGTTGTA | -0.152

Sequence | PBM E-score
AGCTGCTG | -0.129
CCGTCAGA | 0.0483
CCGCCGGC | 0.41
CTTTCCCC | 0.145
ACTGAAAC | 0.076
ACACAAAA | 0.0216
CACACTTA | -0.0264
GAGGAGTA | 0.0495
GCAACGTA | -0.238
AGTGGCTG | 0.00045
AGGCCTGA | -0.0412
ATCGAATG | -0.0617
CTATGTAA | -0.188
CGATCCAA | -0.115
AGCACTAT | -0.279
CTAAAAGA | -0.283
AATAACGC | -0.111
ACAACATC | -0.0181
TATATTGA | 0.0547
ATCCGATC | 0.37
GCTTATCA | -0.178
AGTCTATC | -0.212
CCCTTAAG | -0.108
GGTGAACC | -0.0108
CTCGTGGC | -0.0535

Sequence | PBM E-score
CCCCGATA | 0.35
AACGGCCT | 0.0425
CCTAAGTA | -0.157
AGTTAGAA | 0.0496
CCGGTGTA | 0.365
ACTCGTAC | -0.127
GGCTAACA | -0.013
ATACCGAC | 0.0682
CCAACTGG | -0.22
ATTAACTA | -0.19
ATATACCA | -0.257
ATTAATGG | 0.0287
GCTGAGTA | -0.225
TAGGTGGA | -0.229
CCATATAG | -0.205
GGATCATA | 0.0161
AAATATAC | -0.0358
CGACCAAA | 0.028
CGTATGGA | -0.0318
AACTAGTT | -0.0355
GTTCTCCA | -0.00304
CATAAGAG | -0.125
AGAAGCTC | -0.00659
AACGGTGG | -0.155
AGAGAGGG | -0.216

Sequence | PBM E-score
CATGCAGC | -0.0763
GGAGTGCC | 0.26
AAAGCTGC | -0.0425
ACCGGGCA | 0.279
ATGCCTCG | -0.118
ATCTTCCC | 0.143
CCAAGATC | -0.12
GTCAATCA | -0.24
AAATGTCT | 0.00237
AATGAGCC | -0.1
GCCCGACA | 0.216
CGCGTCCG | 0.27
ACGATGAC | 0.00399
AACCGATG | 0.0999
ACTGCACG | -0.0184
CGCTCGTC | -0.0988
ACGTTTCC | -0.0269
CGTCCGCA | 0.246
GATGATTA | 0.0598
CGCTCCAA | -0.0664
GTTCTAAA | -0.0627
CGGAGTTA | 0.493
TCGAGGAA | -0.246
CCCCGAGA | 0.272
GCCTACAA | 0.046

Sequence | PBM E-score
AACACTTG | -0.16
AAACCGTC | -0.0126
ACGTAAAC | -0.133
TACTTCGA | -0.0676
AATGCTAT | -0.234
GGGCTAGA | 0.109
ACTCCTCC | 0.229
TCGAAAAA | 0.023
AGGCATGA | -0.259
AAGCCTCA | -0.0675
TCTCCTAA | -0.144
GGTTCCAA | 0.188
ACAACTAG | -0.0111
AACAGCGC | -0.137
GGGATAAC | 0.163
AATAGGCT | 0.0282
AAGACCCG | 0.0763
CAAATGCC | 0.187
CCGAGCGA | 0.279
CAGCGCCC | -0.099
CTAATTGC | 0.0847
GTCGGCAA | 0.184
